Results are given in words; binding and its absence hold for the method and conditions named. Some entries that bind do so weakly or less than the wild type.
T1: Vtc3 (Baker's yeast, UniProt Q02725 1-835)
T1 construct: Vtc3, yeast, UniProt Q02725; codon-optimized DNA in the pMlink vector; source: Expi293F cells, transiently cotransfected with the Vtc1 and Vtc4 plasmids; purified as part of the VTC complex (anti-Flag resin, Strep-Tactin resin; SEC for the cryo-EM sample); not shown: 3×Flag, N-terminal, kept
T1 sequence: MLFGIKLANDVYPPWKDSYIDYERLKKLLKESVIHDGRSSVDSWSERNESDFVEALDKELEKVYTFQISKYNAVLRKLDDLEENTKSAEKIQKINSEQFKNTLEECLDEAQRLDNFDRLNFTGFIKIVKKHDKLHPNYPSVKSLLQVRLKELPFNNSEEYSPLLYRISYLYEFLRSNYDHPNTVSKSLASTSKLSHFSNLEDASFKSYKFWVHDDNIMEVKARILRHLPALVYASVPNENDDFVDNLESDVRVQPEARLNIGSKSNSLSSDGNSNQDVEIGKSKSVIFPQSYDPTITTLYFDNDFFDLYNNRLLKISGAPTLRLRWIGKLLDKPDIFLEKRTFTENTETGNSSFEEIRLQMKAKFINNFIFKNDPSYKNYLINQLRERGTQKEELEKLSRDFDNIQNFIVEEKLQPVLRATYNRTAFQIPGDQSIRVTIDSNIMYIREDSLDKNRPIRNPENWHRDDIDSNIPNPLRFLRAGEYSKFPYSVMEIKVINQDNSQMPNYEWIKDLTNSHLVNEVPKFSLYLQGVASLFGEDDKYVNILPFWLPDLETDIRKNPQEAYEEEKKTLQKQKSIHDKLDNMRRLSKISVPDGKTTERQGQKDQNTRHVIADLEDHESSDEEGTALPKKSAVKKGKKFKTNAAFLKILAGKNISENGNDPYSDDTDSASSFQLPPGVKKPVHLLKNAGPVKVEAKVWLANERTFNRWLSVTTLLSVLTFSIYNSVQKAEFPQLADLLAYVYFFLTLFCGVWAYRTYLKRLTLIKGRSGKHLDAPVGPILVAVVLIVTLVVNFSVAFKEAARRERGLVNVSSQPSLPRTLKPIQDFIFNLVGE

Sequences of proteins named here, by UniProt entry; tags and fusion partners are left off. A change or cut given only in a name is not applied to a line headed by its entry.
UniProt P47075: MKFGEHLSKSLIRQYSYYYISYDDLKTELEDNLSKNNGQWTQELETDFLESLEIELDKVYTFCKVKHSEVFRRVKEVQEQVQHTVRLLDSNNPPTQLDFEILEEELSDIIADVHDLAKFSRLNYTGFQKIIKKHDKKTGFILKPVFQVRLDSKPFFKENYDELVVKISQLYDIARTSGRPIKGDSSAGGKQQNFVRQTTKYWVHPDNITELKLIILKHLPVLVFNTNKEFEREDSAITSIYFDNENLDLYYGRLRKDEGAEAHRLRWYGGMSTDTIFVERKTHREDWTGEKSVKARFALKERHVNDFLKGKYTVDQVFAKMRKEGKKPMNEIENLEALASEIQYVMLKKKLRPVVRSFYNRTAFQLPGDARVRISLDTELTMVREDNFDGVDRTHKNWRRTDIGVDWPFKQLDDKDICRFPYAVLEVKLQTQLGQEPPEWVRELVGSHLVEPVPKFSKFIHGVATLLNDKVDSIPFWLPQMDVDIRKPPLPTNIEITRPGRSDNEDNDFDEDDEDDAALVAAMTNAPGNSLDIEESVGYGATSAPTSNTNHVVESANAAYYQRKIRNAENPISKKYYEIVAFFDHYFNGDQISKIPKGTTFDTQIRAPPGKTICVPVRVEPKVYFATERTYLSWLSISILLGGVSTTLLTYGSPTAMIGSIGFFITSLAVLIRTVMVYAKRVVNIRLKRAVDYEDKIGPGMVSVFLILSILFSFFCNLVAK

T2: TTM_(183–553)^Vtc3,mutant (Baker's yeast) (UniProt Q02725)
T2 sequence: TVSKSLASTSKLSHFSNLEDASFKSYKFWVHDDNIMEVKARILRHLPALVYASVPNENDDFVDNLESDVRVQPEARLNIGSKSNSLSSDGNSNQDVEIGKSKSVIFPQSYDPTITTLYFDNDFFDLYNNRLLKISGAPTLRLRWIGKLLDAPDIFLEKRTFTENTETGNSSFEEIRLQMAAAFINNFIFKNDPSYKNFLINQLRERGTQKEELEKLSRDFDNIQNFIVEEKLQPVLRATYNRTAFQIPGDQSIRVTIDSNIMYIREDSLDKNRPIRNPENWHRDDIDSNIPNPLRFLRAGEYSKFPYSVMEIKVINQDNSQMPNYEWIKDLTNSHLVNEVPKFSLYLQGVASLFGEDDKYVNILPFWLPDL

T3: TTM_(183–553)^Vtc3 (Baker's yeast) (UniProt Q02725)
T3 sequence: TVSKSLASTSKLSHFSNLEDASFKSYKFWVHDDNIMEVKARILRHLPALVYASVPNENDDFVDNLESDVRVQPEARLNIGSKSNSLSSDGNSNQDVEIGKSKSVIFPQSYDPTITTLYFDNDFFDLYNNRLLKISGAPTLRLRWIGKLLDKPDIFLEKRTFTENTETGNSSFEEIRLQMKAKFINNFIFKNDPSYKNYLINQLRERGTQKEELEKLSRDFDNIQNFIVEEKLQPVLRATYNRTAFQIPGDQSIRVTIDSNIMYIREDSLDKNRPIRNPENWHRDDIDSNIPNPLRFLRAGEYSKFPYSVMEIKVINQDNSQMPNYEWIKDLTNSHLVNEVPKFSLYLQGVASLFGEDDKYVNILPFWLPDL

B1: Vtc1_(K24A/R31A) (protein, UniProt P40046 2-129)
chain: SSAPLLQRTPGKKIALPTRVEPAVFFANEATFLSWLNFTVMLGGLGVGLLNFGDKIGRVSAGLFTFVAMGTMIYALVTYHWRAAAIRRRGSGPYDDRLGPTLLCFFLLVAVIINFILRLKYNDANTKL
B2: Vtc1_(Δ1–21) (domain or fragment, UniProt P40046 22-129)
chain: EPKVFFANERTFLSWLNFTVMLGGLGVGLLNFGDKIGRVSAGLFTFVAMGTMIYALVTYHWRAAAIRRRGSGPYDDRLGPTLLCFFLLVAVIINFILRLKYNDANTKL

Experiments:
Vtc3 = biological target: T1, Vtc3; test: tandem affinity co-purification (anti-Flag resin, then Strep-Tactin resin) with SDS-PAGE; three subunits co-expressed in Expi293F; complex purified by 3×Flag on Vtc3 and 2×Strep on Vtc4; no InsP6 added, 0.02% DDM
[1] = biological target: T2, TTM_(183–553)^Vtc3,mutant (Baker's yeast); test: SEC; isolated TTM domains mixed in the presence of InsP6; 25 mM Tris-HCl pH 8.0, 150 mM NaCl; both purified
[2] = biological target: T3, TTM_(183–553)^Vtc3 (Baker's yeast); test: as above
Vtc4 (Baker's yeast) = Vtc4 (Baker's yeast) (UniProt P47075); test: tandem affinity co-purification (anti-Flag resin, then Strep-Tactin resin) with SDS-PAGE; three subunits co-expressed in Expi293F; complex purified by 3×Flag on Vtc3 and 2×Strep on Vtc4; no InsP6 added, 0.02% DDM

Molecule	binding (Vtc3)	further results
Vtc4_(K622A/R629A) (from UniProt P47075 2-721)	binds	–
TTM_(189–480)^Vtc4 (from UniProt P47075 189-480) (domain or fragment)	–	binding [1]: no binding
Vtc4_(K300A/R302A/K320A) (from UniProt P47075 2-721)	binds	–
Vtc4_(Y22F/K26A/K133A) (from UniProt P47075 2-721)	binds	–
TTM_(189–480)^Vtc4,mutant (from UniProt P47075 189-480) (domain or fragment)	–	binding [2]: no binding
Vtc4_(K129A/K132A/K136A) (from UniProt P47075 2-721)	binds	–
B1	binds	binding (Vtc4 (Baker's yeast)): binds
B2	binds	binding (Vtc4 (Baker's yeast)): binds

Reference: paper PMC9911596 (Nature Communications, 2023)
